Among all 360,000 compounds or so, about 7,500 (2.1%) were called active. This list was built around the results that the source calls inconclusive (neither active nor inactive); the mix of calls is not that of the screen. Calls follow the shape of the dose curve; as a rule, active = well fitted cell-killing curve with a large enough effect; inconclusive = small, poorly fitted or top-dose-only effect, or effect the other way, or another doubt; inactive = no such curve, though single readings can be large or run the other way. Potencies of inconclusive entries are left out as doubtful fits.
test: qHTS for induction of synthetic lethality in tumor cells producing 2HG: qHTS for the HT-1080-IDH1KD cell line; conditions: HT-1080 IDH1 knockdown viability, ATP luminescence, 48 h; activity, negative = toxicity: at 46.1 µM (top of the series) unless noted;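 as to activity, negative = toxicity: 0% = DMSO wells and -100% = cell-free medium wells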
Procedure, shortened: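 IDH1KD HT-1080 cells, 750/well, RPMI + 5% FBS; compound pinned after 2 h settling; 48 h, 37 °C; CellTiter-Glo luminescence; % activity normalised to DMSO and no-cell wells; curves fitted, classed by r2 and efficacy.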
Potency is read from the fitted curve at half-maximal effect; tags tell the direction and shape of the fitted curve.

| Compound | Potency | activity, negative = toxicity |
| --- | --- | --- |
| Nc1ccccc1Oc1c(F)c(F)c(Oc2ccccc2N)c(F)c1F | inconclusive [cytotoxic, partial curve, poor fit] |  |
| C(=C\c1ccccc1)/CN1CCN(C(c2ccnc3ccccc23)c2nnnn2C2CCCC2)CC1 (stereo not given) | inconclusive [cytotoxic, single point] |  |
| CN(C)c1ccc(N=Cc2cccn2C)cc1 | inconclusive [cytotoxic, single point] |  |
| Cc1onc(-c2c(F)cccc2Cl)c1C(=O)c1ccccc1O | active: 25.9 µM |  |
| FC(F)(F)c1nnc(-c2ccccc2)nc1Sc1ccc(Cl)cc1 | inconclusive [cytotoxic, single point] |  |
| COc1cccc(CN2CCC2(C)C(=O)Nc2cccc(Oc3ccccc3)c2)c1F (stereo not given) | active: 6.51 µM |  |
| COc1ccc(CC(=O)Nc2c3c(nn2-c2cccc(Cl)c2)CS(=O)(=O)C3)cc1 | inconclusive [cytotoxic, single point] |  |
| CCOc1ccc(N2CC(NC(=O)c3ccc4ccccc4c3)CC2=O)cc1 (stereo not given) | inconclusive [cytotoxic, single point] |  |
| Cc1ccc(N=C/C(C(=O)C(F)(F)F)=C(\O)c2ccco2)cc1Cl |  | inactive: -12.9% |
| O=C1c2ccccc2C(=O)c2[nH]cnc21 |  | inactive: -26.3% |
| COCc1nnc(NC(=O)CCCCCN2C(=O)c3ccccc3C2=O)s1 | inconclusive [cytotoxic, single point] |  |
| CC1=C(C(=O)Nc2ccc([N+](=O)[O-])cc2)C(c2cccc(C(F)(F)F)c2)NC(=S)N1c1ccccc1 (stereo not given) | inconclusive [cytotoxic, partial curve, poor fit] |  |
| COc1ccc(S(=O)(=O)N2CCOC23CCN(S(=O)(=O)c2cc(C)ccc2C)CC3)cc1 |  | inactive: 4.63% |
| O=C(O)CN1C(=O)/C(=C\C(Br)=C\c2ccccc2)SC1=S | inconclusive [cytotoxic, single point] |  |
| O=C1NC(c2cccc3ccccc23)Nc2ccccc21 (stereo not given) | active: 0.731 µM |  |
| Cc1ccnc(SCC(=O)N2CCN(C(c3ccccc3)c3ccccc3)CC2)n1 |  | inactive: 14.3% |
| CCCOc1cccc(-c2cc(C(=O)N/N=C/c3ccccn3)c3ccccc3n2)c1 | inconclusive [cytotoxic, partial curve] |  |
| COC(=O)C1=C(C)N(Cc2ccccc2)C(=NCC(C)C)N[C@H]1c1ccccc1 | inconclusive [cytotoxic, single point] |  |
| CC(O)C1CCC2C3CCC4CC(O)CCC4(C)C3C(=O)CC12C (stereo not given) |  | inactive: 2.13% |
| O=C(COc1ccc(Cl)cc1)Nc1ncc([N+](=O)[O-])s1 | inconclusive [cytotoxic, partial curve] |  |
| CCCCC(c1nc2ccccc2[nH]1)n1c(-c2ccccc2)nc2ccccc21 (stereo not given) |  | inactive: -1.11% |
| C#CCOCCOCCOCCNc1nc(N2CCN(C(=O)CCCCCCCCCCNC(=O)[C@H]([C@@H](C)CC)n3cc(CCCCN=C(N)N)nn3)CC2)nc(N2CCN(C(=O)CCCCCCCCCCNC(=O)[C@H](CO)n3cc(CCCSC)nn3)CC2)n1 | inconclusive [cytotoxic, partial curve, poor fit] |  |
| CCSc1nnc(NC(=O)c2ccccn2)s1 | inconclusive [cytotoxic, partial curve] |  |

| Compound | Potency | activity, negative = toxicity |
| --- | --- | --- |
| CCC(C)C(=O)Nc1nc(-c2ccc3c(c2)NC(=O)CO3)cs1 (stereo not given) |  | inactive: -8.1% |
| CC(=O)c1sc(-c2ccc(F)cc2)cc1NS(=O)(=O)c1ccc(C)cc1 |  | inactive: 0.0647% |
| Oc1ccc(-c2csc(Nc3ncccn3)n2)cc1O | inconclusive [cytotoxic, partial curve] |  |
| CCOc1ccc(S(=O)(=O)N(C)c2ccc(OCC(=O)Nc3nc4ccccc4s3)cc2)cc1 | active: 6.51 µM |  |
| Cc1cc(C)n(-c2c(F)c(F)c(CN3CCOCC3)c(F)c2F)n1 |  | inconclusive: 27.7% |
| CCOC(=O)[C@H]1[C@H]2COc3ccc(Br)cc3[C@@H]2N2C(=O)CN(Cc3ccco3)C(=O)[C@@]12C |  | inactive: 5.89% |
| O=C(O)CC(NC(=O)c1sc2ccccc2c1Cl)c1ccc(OC2CCCC2)cc1 (stereo not given) | inconclusive [cytotoxic, single point] |  |
| O=c1c(/C=N/O)c(Nc2ccccc2)nc2ccccn12 | inconclusive [cytotoxic, single point] |  |
| Cc1cc(C(=O)Nc2ccc(N3CCOCC3)cc2)c2ccccc2n1 |  | inactive: -2.56% |
| COc1ccc(Nc2nc(N)nc(CSC(=S)N3CCCCC3C)n2)cc1 (stereo not given) | inconclusive [cytotoxic, partial curve] |  |
| Cc1ccc(F)cc1NC(=O)C1C2CCC(O2)C1C(=O)O (stereo not given) |  | inactive: -5.15% |
| CCc1nc(N2CCN(C(C)=O)CC2)c(C#N)c2c1COC(C)(C)C2 |  | inactive: 1.79% |
| Cc1ccc(NS(=O)(=O)c2ccc(NC(=O)c3cccs3)cc2)cc1 |  | inactive: -9.1% |
| CCC(CC)C(=O)N(C)c1c(C)nc2c(OCCOc3ccc(F)cc3)cccn12 | inconclusive [cytotoxic, single point] |  |
| O=C(NNc1ccc(F)cc1F)c1cccs1 | inconclusive [cytotoxic, full curve] |  |
| O=c1cc(N2CCCCC2)c(-c2ccccc2)nn1Cc1c(Cl)cccc1Cl | active: 16.4 µM |  |
| COc1ccc(/C=C/C(=O)Nc2cc(C)nn2-c2nc3ccccc3[nH]2)cc1 |  | inactive: -5.85% |
| CCCCn1c(=N)n(CCOc2ccc(C)cc2)c2ccccc21 | inconclusive [cytotoxic, single point] |  |
| Cc1c(C(=O)N/N=C/c2ccc(N(C)C)cc2)[nH]c2ccc(Cl)cc12 | inconclusive [cytotoxic, full curve] |  |
| NC(c1ccccc1)c1csc(NC(=O)Nc2ccc(OC(F)(F)F)cc2)n1 (stereo not given) | active: 18.4 µM |  |
| CC(C)(C)NC(=O)C(c1ccncc1)N(Cc1cccs1)C(=O)Cn1nnc(-c2ccc(F)cc2)n1 (stereo not given) | inconclusive [cytotoxic, single point] |  |
| COc1cccc(-c2cc(NC=O)c3ncc(-c4ccc(C(C)=O)cc4)n3c2)c1 | active: 10.3 µM |  |

Reference: PubChem BioAssay AID686971 (National Center for Advancing Translational Sciences (NCATS), 2013)
